Results on 57 compounds are retold here after article PMC4336329 (PLoS ONE, 2015).

About 2,200 (0.71%) of roughly 310,000 compounds showed an effect of 50% or more. The effect is printed as a negative number. The list shows a part of the results.

Chain of human ether-à-go-go-related gene (hERG) potassium channel (Q12809 whole entry, looked up): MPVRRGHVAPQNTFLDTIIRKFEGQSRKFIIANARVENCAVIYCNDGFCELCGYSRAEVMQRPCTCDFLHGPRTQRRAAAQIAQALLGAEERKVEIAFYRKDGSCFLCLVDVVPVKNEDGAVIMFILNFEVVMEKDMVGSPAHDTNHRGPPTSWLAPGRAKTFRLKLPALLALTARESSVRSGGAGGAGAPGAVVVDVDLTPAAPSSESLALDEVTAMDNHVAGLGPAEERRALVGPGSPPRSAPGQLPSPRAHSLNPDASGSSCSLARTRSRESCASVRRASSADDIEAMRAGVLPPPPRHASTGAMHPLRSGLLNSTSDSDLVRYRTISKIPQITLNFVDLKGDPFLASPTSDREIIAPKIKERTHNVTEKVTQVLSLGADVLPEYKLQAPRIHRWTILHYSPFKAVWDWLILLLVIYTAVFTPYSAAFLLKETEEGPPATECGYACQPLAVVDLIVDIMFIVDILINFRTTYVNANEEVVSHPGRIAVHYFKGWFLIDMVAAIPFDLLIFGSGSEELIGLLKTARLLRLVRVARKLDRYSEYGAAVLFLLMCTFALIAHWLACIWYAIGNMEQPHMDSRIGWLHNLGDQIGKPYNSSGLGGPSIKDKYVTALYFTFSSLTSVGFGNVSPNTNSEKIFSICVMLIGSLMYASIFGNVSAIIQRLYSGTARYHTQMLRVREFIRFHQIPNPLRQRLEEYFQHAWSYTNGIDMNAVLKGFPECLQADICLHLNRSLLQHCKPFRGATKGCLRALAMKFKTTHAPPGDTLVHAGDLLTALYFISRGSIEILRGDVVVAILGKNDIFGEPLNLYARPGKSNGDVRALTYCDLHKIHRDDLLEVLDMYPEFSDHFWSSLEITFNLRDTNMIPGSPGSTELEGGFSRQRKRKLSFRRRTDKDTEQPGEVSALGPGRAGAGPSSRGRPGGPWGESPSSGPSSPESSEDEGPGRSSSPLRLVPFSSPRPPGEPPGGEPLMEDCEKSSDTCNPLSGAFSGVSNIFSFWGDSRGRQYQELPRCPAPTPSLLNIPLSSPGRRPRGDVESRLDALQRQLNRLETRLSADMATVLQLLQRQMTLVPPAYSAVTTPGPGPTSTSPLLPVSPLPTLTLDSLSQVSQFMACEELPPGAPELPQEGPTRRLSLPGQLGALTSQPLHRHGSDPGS

This experiment concerns the target human ether-à-go-go-related gene (hERG) potassium channel (human, UniProt Q12809). As to the kind of experiment: primary screen, population patch clamp on CHO cells stably expressing hERG.
On to `CCOCCCNC(=O)C1CCN(C(=O)Nc2ccc(Cl)cc2)CC1`, for which the “hERG current change (%, negative = inhibition) at 1uM” value is on record as -1.62%.

As to `CCCCN1CC(O)=C(c2nc3ccccc3s2)C1=N`, the “hERG current change (%, negative = inhibition) at 1uM” value is on record as 15.2%.

Regarding `COc1cccc(OC)c1-c1nn(-c2ncc(C(F)(F)F)cc2Cl)c(=O)o1`, the “hERG current change (%, negative = inhibition) at 1uM” value was determined as 15.6%.

Turning to `CCC1=NN2C(=N)/C(=C/c3c(C)nn(-c4ccccc4)c3Cl)C(=O)N=C2S1`, the “hERG current change (%, negative = inhibition) at 1uM” value is reported as -5.19%.

With `Cc1cc(C)cc(NC(=O)Nc2ccc(-n3ccc(C(F)(F)F)n3)cc2)c1`, the “hERG current change (%, negative = inhibition) at 1uM” value was 11.5%.

Take `CCOc1ccc(C(=O)Nc2ccc3c(c2)OCCO3)cc1[N+](=O)[O-]`: the “hERG current change (%, negative = inhibition) at 1uM” value is recorded as 9.7%.

Consider `COc1ccc(NC(=O)c2ccc3[nH]c(=O)c(=O)[nH]c3c2)c(OC)c1`, for which the “hERG current change (%, negative = inhibition) at 1uM” value is on record as 11.3%.

Consider `Nc1nc(NC(=O)C(Cl)(Cl)Cl)nn1-c1ccccc1`, for which the “hERG current change (%, negative = inhibition) at 1uM” value is 18.4%.

With `Cc1cccc2c(C(=O)N3CCN(c4ccccn4)CC3)cc(-c3cccc(Br)c3)nc12`, the “hERG current change (%, negative = inhibition) at 1uM” value worked out at 8.68%.

As for `c1ccc(-c2cnn3nnnc3n2)cc1`, the “hERG current change (%, negative = inhibition) at 1uM” value is given as -0.158%.

`CC(C)CCNC(=O)CN(Cc1ccco1)C(=O)c1snc(C(N)=O)c1N`: the “hERG current change (%, negative = inhibition) at 1uM” value turned out to be 4.01%.

For the compound `CC/C(C)=N/Nc1ccc(S(=O)(=O)N2CCCC2)cc1[N+](=O)[O-]`, the “hERG current change (%, negative = inhibition) at 1uM” value is 8.37%.

Turning to `Cc1ccc(C(=O)CSc2nc(C)cc(C)c2C(N)=O)cc1`, the “hERG current change (%, negative = inhibition) at 1uM” value is given as 0.19%.

On to `COc1ccccc1NC(=O)CSc1nn2c(=O)c(C)nnc2s1`, for which the “hERG current change (%, negative = inhibition) at 1uM” value is on record as 10.8%.

As to `COc1ccccc1NC(=O)Cc1nnc(SCC(=O)Nc2ccc(F)cc2F)n1C`, the “hERG current change (%, negative = inhibition) at 1uM” value was 12.4%.

In the case of `N#Cc1cnc2ncnn2c1-c1ccccc1`, the “hERG current change (%, negative = inhibition) at 1uM” value was determined as 14.7%.

Consider `Cc1c(NC(=O)c2ccco2)cccc1-c1nc2cccnc2s1`, for which the “hERG current change (%, negative = inhibition) at 1uM” value is reported as -4.68%.

With `COCCn1c(CN2CC(C)CC(C)C2)nc2c1c(=O)n(C)c(=O)n2C` (stereo not drawn), the “hERG current change (%, negative = inhibition) at 1uM” value turned out to be 3.09%.

As for `CCN1CCN(c2nc3ccccc3nc2NS(=O)(=O)c2ccc(NC(C)=O)cc2)CC1`, the “hERG current change (%, negative = inhibition) at 1uM” value came out at 1.95%.

Turning to `COCCCn1c(C(=O)Nc2ccc3c(c2)OCO3)cc2c(=O)n3ccccc3nc21`, the “hERG current change (%, negative = inhibition) at 1uM” value is recorded as 13.5%.

Take `CCC(C)[C@H](NC(=O)N1CC(=O)Nc2ccccc21)C(=O)N[C@H](Cc1c[nH]c2ccccc12)C(=O)O` (stereo partly drawn): the “hERG current change (%, negative = inhibition) at 1uM” value is listed as 16.8%.

For `CCC(C)C12CN3CCN(CC(C)(C3)C1=O)C2` (stereo not drawn), the “hERG current change (%, negative = inhibition) at 1uM” value turned out to be 10.7%.

With `CC(=O)Nc1ccccc1NC(=O)c1cc(C)ccc1C`, the “hERG current change (%, negative = inhibition) at 1uM” value is recorded as 14.6%.

Regarding `O=C(Nc1ccccc1F)c1cc2c(s1)-c1ccccc1S(=O)(=O)C2`, the “hERG current change (%, negative = inhibition) at 1uM” value was 2.35%.

As to `CCCCCCOc1cccc(N)c1`, the “hERG current change (%, negative = inhibition) at 1uM” value came out at 9.05%.

On to `CCCc1cc(=O)oc2cc(OC3CCCCC3=O)ccc12` (stereo not drawn), for which the “hERG current change (%, negative = inhibition) at 1uM” value worked out at 6.05%.

Turning to `CC1CCN(CC(=O)Nc2cccc(C(=O)Nc3cccc(C(F)(F)F)c3)c2)CC1`, the “hERG current change (%, negative = inhibition) at 1uM” value was -1.73%.

For the compound `COc1cc(CNCc2ccco2)cc(OC)c1O.Cl`, the “hERG current change (%, negative = inhibition) at 1uM” value is reported as 18.4%.

In the case of `Cc1cc(C)c(NC(=O)c2ccccc2C(=O)c2ccccc2)c(C)c1`, the “hERG current change (%, negative = inhibition) at 1uM” value stood at 13.9%.

With `COc1ccc(-c2nc(-c3cccs3)c(-c3cccs3)[nH]2)cc1OC`, the “hERG current change (%, negative = inhibition) at 1uM” value came out at 20.3%.

For the compound `CC(Cc1ccccc1)NC(=S)CN1CCCC1=S` (stereo not drawn), the “hERG current change (%, negative = inhibition) at 1uM” value turned out to be 23%.

For `O=S(=O)(c1ccc(F)cc1)N1CCCN(Cc2c(F)cccc2F)CC1`, the “hERG current change (%, negative = inhibition) at 1uM” value came to 9.03%.

Take `CCOc1ccccc1C(=O)N[C@H](C(=O)OCc1cc(=O)oc2cc(C)ccc12)C(C)C`: the “hERG current change (%, negative = inhibition) at 1uM” value turned out to be 2.83%.

On to `CCc1ccccc1NC(=O)c1cnc2n(c1=O)CCS2`, for which the “hERG current change (%, negative = inhibition) at 1uM” value is recorded as 9.9%.

Take `O=C(NCc1ccc(Cl)cc1)C1CCC(CNc2c(N3CCCC3)c(=O)c2=O)CC1` (stereo not drawn): the “hERG current change (%, negative = inhibition) at 1uM” value was determined as 3.95%.

Consider `Cc1cccc(N/C=C(\[N+](=O)[O-])S(=O)(=O)c2ccccc2)c1C`, for which the “hERG current change (%, negative = inhibition) at 1uM” value is given as 9.29%.

Consider `COc1ccc(/C=N/NC(=O)C(C)n2cnc3ccccc3c2=O)cc1OC` (stereo not drawn), for which the “hERG current change (%, negative = inhibition) at 1uM” value came to 0.713%.

`CC(C)NC(=O)c1ccccc1NC(=O)C1CCCO1` (stereo not drawn): the “hERG current change (%, negative = inhibition) at 1uM” value amounted to 2.68%.

Consider `C=CCc1ccc(OCCCOc2ccc(C)cc2OC)c(OC)c1`, for which the “hERG current change (%, negative = inhibition) at 1uM” value is recorded as 21.2%.

With `CCCOc1ccccc1NC(=O)c1c(-c2ccccc2)noc1C`, the “hERG current change (%, negative = inhibition) at 1uM” value turned out to be 15.7%.

As for `COc1ccc(Sc2ccc(NC(=O)c3ccccc3Cl)cc2C#N)cc1`, the “hERG current change (%, negative = inhibition) at 1uM” value worked out at 8.52%.

For the compound `Cc1ccc(O)c(CNc2ccccn2)c1`, the “hERG current change (%, negative = inhibition) at 1uM” value was found to be 8.65%.

In the case of `Cc1cccc(C(=O)c2c(N)sc3c2CCCC3)c1`, the “hERG current change (%, negative = inhibition) at 1uM” value was determined as 8.52%.

As to `CCCCc1c(O)nc(SCCN(C)C)n(-c2ccccc2)c1=O`, the “hERG current change (%, negative = inhibition) at 1uM” value worked out at 13%.

As for `COc1ccc(CCN2CC(C#N)=C3c4cc(OC)c(OC)cc4CCN3C2)cc1OC`, the “hERG current change (%, negative = inhibition) at 1uM” value was -12.9%.

Regarding `Cc1cc(OC(=O)c2cc([N+](=O)[O-])ccc2Cl)c([N+](=O)[O-])c(=O)[nH]1`, the “hERG current change (%, negative = inhibition) at 1uM” value was found to be 4.01%.

As to `CCCCCCCC(=O)Nc1ccc(C(=O)N/N=C/c2cccc([N+](=O)[O-])c2)cc1`, the “hERG current change (%, negative = inhibition) at 1uM” value worked out at 12.6%.

As to `Cc1ccccc1/C=N/n1c(COc2ccccc2)n[nH]c1=S`, the “hERG current change (%, negative = inhibition) at 1uM” value is listed as 8.21%.

Turning to `O=C(Nc1ccccc1)C1=C(O)CC(c2ccc(Cl)cc2)N2CCN=C12` (stereo not drawn), the “hERG current change (%, negative = inhibition) at 1uM” value is -15.7%.

For `CCC(Oc1ccccc1)C(=O)Nc1ccccc1N1CCCC1` (stereo not drawn), the “hERG current change (%, negative = inhibition) at 1uM” value stood at 10.3%.

`O=C(Nc1cc2c(oc1=O)CCCC2=O)c1cccc(Cl)c1`: the “hERG current change (%, negative = inhibition) at 1uM” value is 14.4%.

For the compound `CCOC(=O)c1cc2c(=O)n3ccccc3nc2n(Cc2ccco2)c1=NC(=O)c1ccc(OC)cc1OC`, the “hERG current change (%, negative = inhibition) at 1uM” value is -12.8%.

Turning to `C=CCSc1nc(N)c(C#N)c(-c2ccccc2)c1C#N`, the “hERG current change (%, negative = inhibition) at 1uM” value came out at 5.82%.

With `Cc1cc(C(=O)N2CCN(c3cc(Cl)ccc3C)CC2)on1`, the “hERG current change (%, negative = inhibition) at 1uM” value is -6.67%.

Turning to `COC(=O)CCc1c(C)nc(N)[nH]c1=O`, the “hERG current change (%, negative = inhibition) at 1uM” value amounted to 13.4%.

Regarding `Cc1cc(=O)[nH]c(SCC(=O)c2c(N)n(C)c(=O)n(C)c2=O)n1`, the “hERG current change (%, negative = inhibition) at 1uM” value worked out at 10.5%.

For `CCc1nc(N2CCCCC2C(=O)O)c2oc3ccccc3c2n1` (stereo not drawn), the “hERG current change (%, negative = inhibition) at 1uM” value is given as 10.9%.
